# Laboratory results reported in PubChem BioAssay AID686979 (National Center for Advancing Translational Sciences (NCATS), 2013).
# Screen size: about 420,000 compounds; about 50,000 (12%) were called active. The inconclusive results got no clear call from the source; some entries with a clear call stand among them for comparison. The call rests on the fitted dose curve; in most records, active means well fitted inhibition curve with a large enough effect; inconclusive means small, poorly fitted or top-dose-only effect; inactive means flat fitted curve, though single readings scatter. No potency is given beside an inconclusive call; the fits are too rough.
# Assay: qHTS for Inhibitors of human tyrosyl-DNA phosphodiesterase 1 (TDP1): qHTS in cells in presence of CPT; further: nearly all actives have a fitted effect of over 55% in size
# Settings: chicken DT40 Tdp1-/-;hTDP1 cells + 20 nM CPT, ATP luminescence, 48 h; activity change, negative = growth inhibition: at 46.2 µM (top of the series) unless noted
# Summary of the method: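 Chicken DT40 Tdp1-/- cells stably complemented with human TDP1 were seeded at 400 cells/well in medium containing 20 nM camptothecin, exposed to pin-transferred compounds, and grown at 37 °C for at least 48 hr. Viability was read as ATP luminescence.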
# On the % scale 0 is the no-effect control and ±100 the full control effect; potency means the concentration at half of the fitted maximal effect; tags describe the fitted curve by direction and shape.
Structure (SMILES),"activity change, negative = growth inhibition",Potency
CCOc1ccc(Nc2cc(C)nc3nc(Cc4ccc(Cl)cc4)nn23)cc1,inconclusive: -30.9% [inhibitor],
CC(C)(C)NC(=O)Cn1nnc(-c2ccc(OCc3c(F)cccc3Cl)cc2)n1,,"inconclusive [inhibitor, single point]"
Cc1nc2sc(-c3ccccc3)cc2c(=O)n1-n1cccc1,,"inconclusive [inhibitor, single point]"
COc1ccc(-c2nn(-c3ccccc3)cc2C(=O)Nc2cccc(S(=O)(=O)NC3=NCCC3)c2)cc1,,"inconclusive [inhibitor, single point]"
O=C1/C(=C/c2cccc3ccccc23)CCCc2ccccc21,,inactive
Cc1ccc(C)c(-c2nnc(NC(=O)c3ccc4c(c3)OCCO4)o2)c1,,active: 18.4 µM
COC(=O)c1ccc(N2CCN(C)CC2)c(NC(=O)c2sc3ccccc3c2Cl)c1,,active: 23.1 µM
CC(=O)Nc1ccc(Nc2nc3c(S(=O)(=O)c4cccc(Cl)c4)nnn3c3ccsc23)cc1,,"inconclusive [inhibitor, single point]"
COc1ccc(CCNC(=O)Cn2c(=O)c3cccn3c3ccc(F)cc32)c(OC)c1,,"inconclusive [inhibitor, single point]"
CCn1c(N2CCN(S(=O)(=O)c3ccc(Cl)cc3)CC2)nc2ccccc21,,active: 14.6 µM
CCCC(=O)N1CCCC(c2nc(-c3cccs3)no2)C1 (configuration not stated),,"inconclusive [inhibitor, single point]"
Cn1c(NC(=O)c2ccc(F)cc2)c(-c2cccs2)c(=O)c2ccccc21,,"inconclusive [inhibitor, single point]"
CC(C)(C)C(=O)NC(=S)Nc1sc2c(c1C#N)CCCCC2,,"inconclusive [inhibitor, single point]"
CC(=O)Nc1ccc(S(=O)(=O)Nc2cccn(Cc3ccc(C)cc3)c2=O)cc1,,"inconclusive [inhibitor, partial curve, poor fit]"
CCN(CC)Cc1c(NC(=O)c2ccc(OC)cc2)sc2c1CCCC2,,active: 18.4 µM
COc1cccc(C(=O)Nc2ccc(-n3nncc3-c3ccccc3)cc2)c1,,"inconclusive [inhibitor, single point]"
CSc1ccc(NC(=O)N2CCC(C(=O)c3ccc(F)cc3)CC2)cc1,,"inconclusive [inhibitor, single point]"
Cc1ccc(NC(=O)CN2C(=O)CCc3cc(S(=O)(=O)N4CCCCC4)ccc32)cc1C,,"inconclusive [inhibitor, single point]"
Nc1c2c(nn1-c1ccc(C(=O)O)cc1)CNC2,,inactive
COc1ccc(S(=O)(=O)N2CCN(CC(=O)Nc3c(C)n[nH]c3C)CC2)cc1OC,,inactive
CCOc1ccc(CCNC(=O)c2cccc3c2C(=O)N(CCOC)C3)cc1OCC,inconclusive: -33.5% [inhibitor],
Cc1ccccc1S(=O)(=O)c1cc2ccccc2nc1N,,inactive
CN1c2ccccc2C(O)=C(C(=S)Nc2ccc(Cl)cc2)S1(=O)=O,,active: 16.4 µM
O=C(c1ccc(Br)c([N+](=O)[O-])c1)N1CCN(Cc2ccccc2)CC1,,"inconclusive [inhibitor, single point]"

Structure (SMILES),"activity change, negative = growth inhibition",Potency
O=C(c1ccccc1)N1CCN(c2ncnc3c2cnn3-c2ccccc2)CC1,,active: 23.1 µM
CC1CCCC(C)N1c1ccc(S(=O)(=O)N2CCOCC2)cc1Cl (configuration not stated),,"inconclusive [inhibitor, single point]"
CCOc1ccc(S(=O)(=O)Nc2ccc(C(=O)N3CC(C)OC(C)C3)cc2)cc1 (configuration not stated),,"inconclusive [inhibitor, single point]"
COCCOC(=O)C1=C(C)NC(=O)NC1c1c(F)cccc1Cl (configuration not stated),,inactive
Cc1cc(=S)cc(C)n1CCO,,inactive
COC(=O)c1ccc(CO/N=C/c2ccc(OC)cc2OC)cc1,,inactive
Cc1cc(Br)cn2c(Cc3ccsc3)c(-c3ccc(F)cc3)nc12,,inactive
O=S(=O)(Nc1cccc2cccnc12)c1ccc(S(=O)(=O)N2CCCC2)cc1,,active: 16.4 µM
COc1ccc([C@H]2CC(=O)C=C(c3cc4ccccc4s3)C2)cc1OC,,"inconclusive [inhibitor, single point]"
CCn1c(NC(=O)c2cccs2)c(-c2cccs2)c(=O)c2ccccc21,,inactive
COc1ccc(-c2cc(C(=O)Nc3sc4c(c3C#N)CCCC4)c3ccccc3n2)cc1,,inactive
COc1ccc(NC(=O)CCCC(=O)NCCc2ccc(OC)c(OC)c2)cc1,,"inconclusive [inhibitor, single point]"
C=CCOc1cccc(CNc2cccc(C(=O)O)c2)c1,,inactive
CCOc1ncccc1C(=O)NNC(=O)CSc1ccc(Cl)cc1,,"inconclusive [inhibitor, single point]"
Cc1ccc(C2c3[nH]c4ccccc4c3C[C@H]3C(=O)N(c4ccccc4C(=O)N4CCC[C@@H]4C(=O)O)C(=O)N23)cc1 (some centres not stated),,inactive
CCOc1ccc(CCNC(=O)c2[nH]c(C)c(C(C)=O)c2CC)cc1OCC,,active: 18.4 µM
CCOc1ccc(C(=O)NCC(=O)OCc2c(F)cccc2Cl)cc1,,"inconclusive [inhibitor, single point]"
COc1ccc(OC)c2sc(NC(=O)C3COc4ccccc4O3)nc12 (configuration not stated),,"inconclusive [inhibitor, single point]"
CN(C)c1ccc(-c2nc(NC3CCNCC3)c3ccccc3n2)cc1,,active: 1.3 µM
COc1cc2c(cc1NC(=O)COC(=O)[C@@H](NS(=O)(=O)c1cccc(Cl)c1)C(C)C)oc1ccccc12,,"inconclusive [inhibitor, single point]"
O=C(Nc1cccc(NC(=O)c2nccc3ccccc23)c1)c1ccco1,,"inconclusive [inhibitor, single point]"
CC1=C(C(=O)OC2CCCCC2)C(c2ccccc2Br)NC(=O)N1 (configuration not stated),,"inconclusive [inhibitor, single point]"
Cc1ccc(CN(C(=O)COc2ccc(Cl)cc2C)C2CCS(=O)(=O)C2)o1 (configuration not stated),,"inconclusive [inhibitor, partial curve, poor fit]"
CCOC(=O)c1c(NC(=O)c2cc(CC(C)C)on2)sc(C(C)=O)c1C,,"inconclusive [inhibitor, partial curve, poor fit]"

Structure (SMILES),"activity change, negative = growth inhibition",Potency
Cc1ccc(NC(=O)c2cc3c(=O)n(Cc4ccco4)ccc3nc2C)cc1C,,active: 25.9 µM
CN1CCCCc2c1nc1c(c2N)CCCC1,,inactive
CC(O)CNC12CC3CC(CC(C3)C1)C2 (configuration not stated),,inactive
O=CN1Cc2ccccc2-c2ccccc2C1,,inactive
CCC(=O)NNC(=O)CSc1nnc(-c2ccccc2)c(-c2ccccc2)n1,,inactive
CC(=O)N(C)C1(c2nnnn2CCOC(=O)Nc2ccc(Cl)cc2)CCCCC1,,inactive
CC[C@@H](C)[C@@H](C(=O)Nc1ccc(C)cc1)N1Cc2ccccc2C1=O,inconclusive: -25% [inhibitor],
COc1ccc2c(c1)OC[C@H]1[C@H]2N2C(=O)CN(C)C(=O)[C@@]2(C)[C@H]1c1ccccc1,,"inconclusive [inhibitor, single point]"
Cc1nc2sc(C(=O)N(C)c3ccccc3)c(NC(=O)c3ccccc3Cl)c2c(C)c1C,,"inconclusive [inhibitor, single point]"
CNC(=S)N1CCN(c2nc(-c3ccc(Cl)cc3)cs2)CC1,,"inconclusive [inhibitor, single point]"
COc1ccc(Nc2nc(C)nc3c2nnn3Cc2ccccc2)cc1OC,,"inconclusive [inhibitor, partial curve]"
COc1ccc(-c2nnc3n(CCc4ccccc4)c(=O)c4ccccc4n23)cc1OC,,"inconclusive [inhibitor, partial curve]"
CSc1ccc(C2c3c(oc4cc(C)cc(C)c4c3=O)C(=O)N2CCO)cc1 (configuration not stated),,"inconclusive [inhibitor, single point]"
Cc1cc(NCCCN2CCOCC2)n2ncc(-c3ccc(Cl)cc3)c2n1,,"inconclusive [inhibitor, single point]"
c1ccc(-c2cccc(N3CC4(CCNCC4)C3)c2)cc1,,active: 9.2 µM
Cc1ccc(NC(=O)c2c(C)oc3ccc(O)c(CN4CCOCC4)c23)c(C)c1,,inactive
CC(=O)Oc1ccc(N2C(=O)c3cccc4c([N+](=O)[O-])ccc(c34)C2=O)cc1,,active: 3.66 µM
Cc1ccc(NC(=O)C(c2ccc(Cl)cc2)N2CCOCC2)cc1 (configuration not stated),,"inconclusive [inhibitor, single point]"
COc1ccc(C2C(C(=O)Nc3ccccc3OC)=C(C)Nc3c(C(=O)Nc4ccccc4)cnn32)c(OC)c1 (configuration not stated),,active: 20.6 µM
COc1ccc(-c2ccc(N3C(c4ccsc4)=Cc4ccc(F)cc4C3c3c[nH]c4ccccc34)cc2)cc1 (configuration not stated),,"inconclusive [inhibitor, single point]"
CCOc1ccc(NC(=O)N(Cc2c[nH]c3ccccc23)C2CCCCCC2)cc1,,active: 9.2 µM
O=C(Nc1ccccc1N1CCCCC1)c1ncoc1-c1ccc(F)cc1,,"inconclusive [inhibitor, single point]"
Cn1c(=S)c2[nH]c(SCCN3CCCC3)nc2n(C)c1=O,,"inconclusive [inhibitor, single point]"
Cc1ccc(-n2nc(C(=O)O)c3ccccc3c2=O)cc1C,,"inconclusive [inhibitor, partial curve, poor fit]"
